Experimental data reported in ChEMBL document CHEMBL4888484, “Replenishing the malaria drug discovery pipeline: Screening and hit evaluation of the MMV Hit Generation Library 1 (HGL1) against asexual blood stage Plasmodium falciparum ,using a nano luciferase reporter read-out” (2022).
Screen size: about 150,000 compounds; about 540 (0.36%) showed an effect of 50% or more. This is one part of the list.

system: Plasmodium falciparum; test: Primary screen in NF54 nanoGlo assay, in single point, at 2uM, 72h; a lower Z score goes with more inhibition; type: functional, Erythrocyte; conditions: timepoint 72 hour

Structure (SMILES)	% Inhibition [%]	Z score
Cc1cc(CNS(=O)(=O)c2ccc(Br)cc2C)on1	-4	0.59
COC(=O)c1ncccc1OCc1cccc(C#N)c1	-20	1.65
COC1(C)CN(c2nc3ccccc3s2)C1	-4	0.4
O=C1CN(Cc2noc(-c3ccsc3)n2)C2CCCCC2N1 (stereo not given)	-8	0.97
O=C1C[C@H](Cc2ccc(F)cc2)C(=O)N1CC1(O)CCCC1	-7	0.69
Cn1cccc1-c1cc2n(n1)CCC(=O)N2CCCC(=O)NCc1cccc(Cl)c1	-3	0.56
C=CCN(C)C(=O)c1cncn1-c1ccc(-c2cc(C(F)(F)F)cc(C(F)(F)F)c2)cc1	15	-1.5
COCCN(CCC(=O)N1CCN(C)CC1)C(=O)c1cc(-c2ccccc2OC)on1	-6	0.92
Cc1nnc(NC(=O)N2Cc3cc(Br)ccc3C[C@@H]2C)s1	-3	0.49
CCN1CCN(C(=O)[C@H]2Cc3ccc(cc3)OCC(=O)N[C@@H](CC(C)C)C(=O)N(CCOC)CC(=O)N2)CC1(C)C	0	0.03
CC(OC(=O)CCC1NC(=O)NC1=O)c1ccc(Cl)cc1Cl (stereo not given)	33	-3.77
CCCCCNC(=O)CNS(=O)(=O)c1ccccc1N	-3	0.28
COC(=O)c1cccc(CN(Cc2cccn2Cc2ccc(C(F)(F)F)cc2)[C@@H](C)C(C)C)c1	-22	2.44
COCCc1noc([C@H](C)NC2CCN(c3ccccc3C)CC2)n1	-2	0.22
CC(C1CC1)N(C)S(=O)(=O)N1CCCC1c1ncccn1 (stereo not given)	-2	0.39
COc1ccc(CN2CCCN([C@H]3COC[C@@H]3O)CC2)cn1	0	0.06
CCOC(=O)[C@@]1(CCOc2ccccc2)CCCN(C2CCN(CC)CC2)C1	3	-0.4
Cn1cc(-c2cc3n(n2)CCC(=O)N3CC(=O)NC2CCCCCCC2)c2ccccc21	-3	0.6
CN1CCCN(C(=O)c2csc(NC(=O)c3ccc(Cl)cc3Cl)n2)CC1	-16	1.51
Cc1cc(N2CCCC2)nc(CNC(=O)c2ccco2)n1	-12	1.87
Cc1ccc(NS(=O)(=O)c2cc(-c3cnc(C4CC4)o3)ccc2C)c(Br)c1	-5	0.93
CC[C@@]12CCCN1C(=O)N(Cc1ccc(C)cc1OC)C2=O	-7	0.66

Structure (SMILES)	% Inhibition [%]	Z score
O=S(=O)(C1CC1)N1CC[C@H](n2ccnn2)C1	-2	0.32
CC[C@H]1CCCN(C(=O)c2cc(S(=O)(=O)N(C)C)oc2C)C1	-5	0.52
CC1CCCCC1OCC(=O)Nc1cc(C(=O)O)cs1 (stereo not given)	7	-0.86
CN(Cc1nccs1)C[C@](C)(O)c1ccc(S(C)(=O)=O)cc1	-1	0.06
Cc1nc(C)c(C)c(N2CCC(Oc3ccc4ccccc4c3)(C(=O)O)CC2)n1	0	-0.03
COc1ccc(C(=O)N2CCC[C@H](C(=O)NCc3ccccc3Cl)C2)c2ccccc12	-14	1.57
COc1cccc2[nH]cc(CCNC(=O)N3CC[C@@H](C(F)(F)F)C(C)(C)C3)c12	-2	0.22
CCCOCCNC(=O)c1c(C)noc1-c1ccco1	-4	0.65
CCn1ncnc1CNCCc1cnn(-c2ccccc2)c1	-9	1.25
CC1(C)Cc2nc(N3CCOCC3)ncc2[C@@H](NCc2cccc(O)c2)C1	-18	1.54
c1cnc(N2CCOCC2)c(CNC(=NC2CC2)NC2CCCC2)c1	-1	0.1
O=C1CCc2cc(S(=O)(=O)N3CC[C@@H](c4ccccc4)S(=O)(=O)CC3)ccc2N1	-10	1.72
COc1ncccc1CNC[C@H]1COCc2nc3ccccc3n21	8	-0.96
COCCN(Cc1csc(-c2ccco2)n1)[C@@H](C)C1CC1	4	-0.83
Cc1nn(C)c(C)c1OC(=O)c1cc(OCC(F)F)ccn1	-10	1.64
NC(=O)C(c1ccccc1)N1CCCCC1Cn1cccn1 (stereo not given)	-7	1.31
Cc1cccc(C)c1OCC(=O)NCC#N	3	-0.57
COc1cc2nc(N3CCc4ccccc4C3)cc(C)c2c(OC)c1OC	3	-0.52
CCN1CCN(C(=O)c2snc(-c3ccc(C)cc3)c2N)CC1	4	-0.45
O=C(COc1ccccc1)NCC(=O)N[C@H]1CCCc2ccccc21	-3	0.6
CN(C(=O)COc1ccc(CCO)cc1-n1nc2ccccc2n1)C1CCCCC1	-9	1.58
CN(C)[C@H]1CCN(c2nc3cc(Br)ccc3[nH]2)C1	-4	0.89

Structure (SMILES)	% Inhibition [%]	Z score
Cc1nn(C)c(Cl)c1CN(C)C(=O)C12CCCN1CCC2	-2	0.21
CC[C@H](C)[C@H](NCc1ccnn1C)C(=O)OC(C)(C)C	-6	0.74
CC(C)(C(=O)N[C@H]1C[C@@](C)(O)C1)C(F)F	2	-0.28
Oc1nc(-c2ccccc2)n(-c2ccc(Cl)cc2)n1	-1	0.12
CC(O)CNC(c1cnn(C2CCC(C)CC2)c1)C(F)(F)F (stereo not given)	-16	1.79
CC(C)Cc1ncc2c(n1)CN(C(=O)c1n[nH]c3c1COCC3)C2	-6	0.87
COc1cccc([C@@H](C)Nc2cc([C@H]3C[C@H](N)C3)ncn2)c1	-7	1.26
CCN1CCN(C(=O)C(C)N2CCCC2Cn2cc(C)cn2)CC1 (stereo not given)	-12	0.98
CC1CC(C(=O)O)CN(C(=O)NCc2nc3ccccc3s2)C1 (stereo not given)	-15	1.26
Cc1ccc(-n2cccn2)cc1S(=O)(=O)N1C[C@H]2CC[C@@H](C1)N(C)C2	-2	0.32
Cc1nc(-c2ccc(C)c(-n3cc(C(=O)Nc4ccc(Br)cc4F)c(C)n3)c2)no1	7	-0.78
CCc1noc(CN2CCC3(CC2)OCCO3)n1	1	-0.19
O=C(NCc1cccc(C(F)(F)F)c1)[C@@]1(CCO)CCN(c2ncccn2)C1	0	0.04
O=C(Nc1ccccc1-c1ccc2ccccc2n1)c1ccco1	-8	1.31
O=C(CN(C(=O)Nc1ccc(Cl)c(Cl)c1)C1CC1)N1CC(=O)N(c2ccc(Cl)cc2)C1	-2	0.28
Cc1n[nH]c(C)c1NC(=O)CN(C)C1CCCCC1	-5	0.83
CC(C)c1nc(NC(=O)c2c(O)cccc2Cl)n(C)n1	-10	1.34
COc1ccc(Br)c(S(=O)(=O)NCC2(C)CCC2)c1	1	-0.23
CCCCN1CC[C@@H]2N(CCn3cc(Cl)cn3)CCC[C@@]2(CO)C1	-6	1.26
CC(C)[C@@H](NCCC(=O)N1CCN(C)CC1)C(=O)OC(C)(C)C	-12	1.33
O=C(COC(=O)CC(c1ccccc1)c1ccccc1)NCc1ccc2c(c1)OCO2	-14	2.24
CC1CN(S(=O)(=O)c2ccc3c(c2)OCCCO3)CC(C)O1 (stereo not given)	1	-0.21

Structure (SMILES)	% Inhibition [%]	Z score
CC(Nc1ccc2[nH]ncc2c1)C1CC1(C)C (stereo not given)	8	-1.7
CC(C)c1nnc(N2CCN(C)[C@]3(CCC(=O)N(C)CC3)C2)s1	4	-0.54
Cc1cc(C)c(CNC(=O)c2ccc(-n3cccn3)nc2)c(=O)[nH]1	-1	0.08
Cc1n[nH]c(C2CC2)c1C(=O)N1CCN(C(=O)c2ccco2)CC1	-13	1.15
FC(F)(F)CCN(CCn1cncn1)C1CCCC1	-6	0.59
CC(O)CC1CCCN1C(=O)Cc1nc(C(F)(F)F)cs1 (stereo not given)	-7	0.79
CCc1cc(NCCS(=O)(=O)N(C)C)ncn1	-10	1.27
Cc1nc2n(c1C(=O)N(C)C)CCN(C(=O)c1cc(C(F)(F)F)n[nH]1)C2	10	-1.37
COc1ccc2c(c1)[C@H](C(=O)N(CCC(=O)O)C(C)C)CCC2	-13	1.82
CCc1ccccc1OCCC(=O)N1CC2(CCOC2)C1	-4	0.63
CN(C[C@H]1COCCO1)c1nnnn1CCc1c[nH]c2ccccc12	-8	0.88
CC(=O)Nc1cccc(C2OC(=O)N(Cc3ccccc3)C2C(=O)NC2CC2)c1 (stereo not given)	2	-0.3
Cc1ccc(F)c2[nH]c(C(=O)N3CCCS(=O)(=O)C[C@@H]3C)cc12	1	-0.13
CCOC(=O)C1c2cnc(Nc3ccc(C)c(Cl)c3)n2C(=O)NC1c1ccc(C(C)(C)C)cc1 (stereo not given)	-3	0.36
O=C(c1cc(F)ccc1F)N1CCCCS1(=O)=O	5	-1.09
Nc1ncc(S(=O)(=O)NCc2ccccc2)cn1	-20	2.45
C[C@H](NCCCN1CCCC1=O)c1cnccc1NC(=O)OC(C)(C)C	25	-2.84
CC[C@@H](C(=O)Nc1ccc2nc(NC(=O)c3ccccc3)sc2c1)c1ccccc1	-5	0.46
COC(=O)C[C@H]1CCCN1C(=O)C(C)(C)CN1CCOCC1	1	-0.2
